Test results published in PubChem BioAssay AID686978 (National Center for Advancing Translational Sciences (NCATS), 2013).
Several values for one entry are separate records, joined by “and”; a condition that tells them apart may be missing. Equal values may be shown once. Out of some 420,000 compounds screened, about 64,000 (15%) were called active. The inconclusive results got no clear call from the source; some entries with a clear call stand among them for comparison. The call rests on the fitted dose curve; in most records, active means well fitted inhibition curve with a large enough effect; inconclusive means small, poorly fitted or top-dose-only effect; inactive means flat fitted curve, though single readings scatter. A potency beside an inconclusive call is a rough fit, not a confirmed value.

assay: qHTS for Inhibitors of human tyrosyl-DNA phosphodiesterase 1 (TDP1): qHTS in cells in absence of CPT; conditions: DT40 Tdp1-/- hTDP1 cells, no CPT, ATP luminescence, 48 h; activity change, negative = growth inhibition: at 46.2 µM (top of the series) unless noted; further: nearly all actives have a fitted effect of over 55% in size
In short: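 DT40 Tdp1-/-;hTDP1 cells, no CPT (DMSO vehicle only), 400 cells/well; compounds pin-transferred; ≥48 hr, 37 °C; CellTiter-Glo 30 min RT dark, luminescence read.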
On the % scale 0 is the no-effect control and ±100 the full control effect; potency means the concentration at half of the fitted maximal effect; tags describe the fitted curve by direction and shape.

| SMILES | Potency | activity change, negative = growth inhibition |
| --- | --- | --- |
| COC(=O)c1sccc1NC(=O)c1cccc(Cl)c1 | inactive |  |
| COc1ccc2c(c1)c1c(c(=O)n(Cc3ccccc3)c(=O)n1Cc1cccc(Cl)c1)n2C | inconclusive: 8.2 µM [inhibitor, partial curve] |  |
| CC(C)/C=N/Nc1nc(-c2ccc(Br)cc2)cs1 | active: 16.4 µM |  |
| CC(=O)c1ccc(NC(=S)N2CCN(c3cccc(Cl)c3)CC2)cc1 | inconclusive: 18.4 µM [inhibitor, single point] |  |
| CC(C)n1c(CN2CCN(C)CC2)nc2c1c(=O)n(C)c(=O)n2C | inactive |  |
| CCOc1cccc(C(=O)Nc2cnn(Cc3ccccc3)c2)c1 | inconclusive: 29.1 µM [inhibitor, single point] |  |
| CC(=O)/C(=N/Nc1ccc(C)cc1)Sc1nnc(CCc2ccccc2)n1-c1ccccc1 | inactive |  |
| O=C(Nc1ccccc1Br)c1cccc2ccccc12 | inactive |  |
| CSCCC(NC(=O)COc1ccccc1)C(=O)N(C)CC(=O)Nc1ccc(Cl)cc1 (stereo not drawn) | inconclusive: 18.4 µM [inhibitor, single point] |  |
| CCC(=O)Nc1ccc(/C(C)=N\NC(=O)c2ccc(C)s2)cc1 | inconclusive: 29.1 µM [inhibitor, single point] |  |
| COC(=O)c1c(C(=O)OC)c(C)n(Cc2ccco2)c1C | inactive |  |
| C[C@@H]1C2CC(C/C2=N\NC(=O)c2ccncc2)C1(C)C (stereo partly drawn) | inactive |  |
| Cc1ccc(C)c(N2CCN(C(=O)CCC(=O)N3CCOc4ccc(Cl)cc43)CC2)c1 | active: 25.9 µM |  |
| CC(C)Cc1ccc(CN2CCCC(NC(=O)c3cnc4ccccn4c3=O)C2)cc1 (stereo not drawn) | active: 23.1 µM |  |
| Cc1cc(C)c2c(n1)sc1c(-c3ccccc3)c(C#N)c(N)nc12 | inconclusive: 13 µM [inhibitor, partial curve] |  |
| CCOC(=O)C1CCCN(CC(=O)Nc2cc(C)c3c(=O)oc4ccccc4c3n2)C1 (stereo not drawn) | inconclusive: 20.6 µM [inhibitor, partial curve] |  |
| Cc1ccccc1/C=N/Nc1ccc(Cl)nn1 | inconclusive: 29.1 µM [inhibitor, single point] |  |
| COc1ccc([C@H]2CC(=O)C=C(c3ccc(Oc4ccccc4)cc3)C2)cc1OC | active: 23.1 µM |  |
| C/C=C/c1ccc(OCCn2nnc3ccccc32)c(OC)c1 | active: 14.6 µM |  |
| CCOC(=O)N1CCC(NC(=O)CNS(=O)(=O)c2ccc(Br)s2)CC1 | inconclusive: 29.1 µM [inhibitor, single point] |  |
| Cc1nnc(SCC(=O)N2CC(=O)Nc3ccccc32)n1Cc1ccccc1 | inactive |  |
| O=C(COc1ccccc1Br)NCCC1=CCCCC1 | inconclusive: 23.1 µM [inhibitor, single point] |  |
| CCn1cc([N+](=O)[O-])c(C(=O)Nc2nc(-c3ccc(C)c(C)c3)c(C)s2)n1 | inactive |  |

| SMILES | Potency | activity change, negative = growth inhibition |
| --- | --- | --- |
| Cc1ccc(-n2c(O)c(C=NC3CCS(=O)(=O)C3)c3ccccc3c2=O)cc1C (stereo not drawn) | active: 18.4 µM |  |
| COc1ccc(CNc2ncnc3ccc(-c4cccnc4)cc23)c(OC)c1 | inconclusive: 20.6 µM [inhibitor, single point] |  |
| CCCCCCC(O)(CCN1CCCCC1)c1ccccc1 (stereo not drawn) | inconclusive: 16.4 µM [inhibitor, partial curve] |  |
| COc1ccc(CNc2ccc3c(c2)ncn3-c2ccccc2OC)cc1 | inconclusive: 25.1 µM [inhibitor, single point] |  |
| Cc1cc2c(cc1NS(=O)(=O)c1cccc(C#N)c1)n(C)c(=O)c(=O)n2C | inconclusive: 18.4 µM [inhibitor, single point] |  |
| CCOc1ccc(S(=O)(=O)NCC2CCCO2)c2ccccc12 (stereo not drawn) | inconclusive: 3.26 µM [inhibitor, partial curve, poor fit] |  |
| Cc1ccc2cn[nH]c2c1[N+](=O)[O-] | inactive |  |
| CCCOc1ccc(C2C(=O)N(C3CCC(C)CC3)CC(=O)N2Cc2cccc(OC)c2)cc1OC (stereo not drawn) | inconclusive: 4.11 µM [inhibitor, full curve] |  |
| CCOC(=O)CCCN1CC(O)=C(c2nc(-c3ccc(Cl)cc3)cs2)C1=N | inconclusive: 18.4 µM [inhibitor, single point] |  |
| COc1ccc(-c2ccc(-c3noc(-c4ccccc4F)n3)c(OC)n2)cc1 | inconclusive: 8.2 µM [inhibitor, partial curve] |  |
| CC1=Nc2cc(C(=O)N3CCC(C)CC3)ccc2Sc2ccc(Cl)cc21 | inconclusive: 29.1 µM [inhibitor, single point] |  |
| COc1ccc(CN(C(=O)c2oc3ccccc3c2C)C2CCS(=O)(=O)C2)cc1 (stereo not drawn) | inconclusive: 32.6 µM [inhibitor, partial curve, poor fit] |  |
| CN(C)C(=O)c1ccc(-c2nc(NCc3ccccc3)c3ccccc3n2)cc1 | inconclusive: 16.4 µM [inhibitor, single point] |  |
| Cc1cnc(C(=O)OCC(=O)c2c(N)n(CC(C)C)c(=O)n(C)c2=O)cn1 |  | inconclusive: -31.3% [inhibitor] |
| COCCn1c(-c2ccc(C)cc2)nc2oc3cc(OC)ccc3c(=O)c2c1=O | inconclusive: 29.1 µM [inhibitor, partial curve, poor fit] |  |
| COc1ccc(NC(=O)CS(=O)CC(=O)Nc2ccc(NC(C)=O)cc2)cc1 (stereo not drawn) |  | inconclusive: -32.7% [inhibitor] |
| COCc1ccc(-c2c(-c3ccsc3)sc3ccccc23)cc1 | inconclusive: 9.2 µM [inhibitor, partial curve] |  |
| COc1ccc(CN2CCC3(CC2)c2ccccc2[C@@H](NC(=O)c2ccccc2)[C@@H]3O)cc1O | inconclusive: 14.6 µM [inhibitor, partial curve, poor fit] |  |
| CCC(=O)OC1(C)C(=O)C=C2C=C(c3ccsc3)OC=C2C1=O (stereo not drawn) | inactive |  |
| COc1ccc(C(C)=O)cc1CC(=O)Nc1cccc(S(=O)(=O)N2CCOCC2)c1 | inactive |  |
| COc1ccc(C2=NN(C(=O)CSc3ncccn3)C(c3cccc(OC)c3OC)C2)cc1 (stereo not drawn) | inconclusive: 20.6 µM [inhibitor, single point] |  |
| CC(C)c1ccc(NC(=O)C(=O)c2cn(CC(=O)N3CCCCC3)c3ccccc23)cc1 | inconclusive: 18.4 µM [inhibitor, single point] |  |
| COC(=O)c1ccc(CNC(=O)c2c3c(nc4ccccc24)CCN(Cc2ccccc2)C3)cc1 | inconclusive: 25.9 µM [inhibitor, partial curve] |  |

| SMILES | Potency | activity change, negative = growth inhibition |
| --- | --- | --- |
| Cc1cc(Cl)ccc1NC(=O)c1ccc2c(c1)CCN2S(C)(=O)=O | inconclusive: 20.6 µM [inhibitor, single point] |  |
| Cn1c(=O)[nH]c(=O)c2c1nc(N1CCOCC1)n2CC(O)COc1ccc2ccccc2c1 (stereo not drawn) | inconclusive: 18.4 µM [inhibitor, single point] |  |
| O=C(CN1CCCCC1)Nc1ccc(S(=O)(=O)c2ccc(NC(=O)CN3CCCCC3)cc2)cc1 | active: 13 µM |  |
| Cc1ccc(S(=O)(=O)NCc2ccccc2)cc1C(=O)N1CCN(S(=O)(=O)c2ccccc2)CC1 | inconclusive: 18.4 µM [inhibitor, single point] |  |
| CC(C)C12CN3CC(C(C)C)(CN(C1)C3c1ccc([N+](=O)[O-])o1)C2=O (stereo not drawn) | inactive |  |
| CCN(CCO)Cc1csc2cc(C)ccc12 | inconclusive: 29.1 µM [inhibitor, single point] |  |
| CCc1ccc(NC(=O)C2CCCN2S(=O)(=O)c2ccc3c(c2)CCCC(=O)N3)cc1 (stereo not drawn) | active: 18.4 µM |  |
| COc1ccc(C)cc1COC(=O)c1[nH]c(C)c(C(C)=O)c1C | active: 16.4 µM |  |
| COC1C(CO)OC(n2c3c(Cl)cccc3c3c4c(c5c6cccc(Cl)c6[nH]c5c32)C(=O)NC4=O)C(O)C1O (stereo not drawn) | active: 2.59 µM |  |
| N#Cc1ccc(NC(=S)NC(=O)CCc2ccc(S(=O)(=O)N3CCOCC3)cc2)cc1 | inconclusive: 20.6 µM [inhibitor, single point] |  |
| CC1CCC(C(=O)NC(C(=O)OCC(=O)c2ccc(Br)cc2)C(C)C)CC1 (stereo not drawn) | active: 20.6 µM |  |
| O=C(CN1C(=O)NC2(CCCCCCC2)C1=O)N1CCc2ccccc2C1 | inconclusive: 29.1 µM [inhibitor, single point] |  |
| Cc1cc(C)c(C(O)c2ncc(-c3cccc(F)c3)[nH]2)c(C)c1 (stereo not drawn) | inconclusive: 20.6 µM [inhibitor, single point] |  |
| Cc1ccc(CNS(=O)(=O)c2cc3c(cc2Cl)NC(=O)CO3)o1 | inconclusive: 29.1 µM [inhibitor, single point] |  |
| COc1cc(/C=N/NC(=O)c2cn(-c3cccc(C)n3)cn2)ccc1O | inconclusive: 20.6 µM [inhibitor, single point] |  |
| Cc1[nH]nc(-c2ccc(OCc3cnn(-c4ccccc4)c3)cc2O)c1Oc1ccc(F)cc1 | inconclusive: 29.1 µM [inhibitor, single point] |  |
| C=CCc1c(Cl)nc(C)nc1NCc1ccccc1 | inconclusive: 8.2 µM [inhibitor, single point] |  |
| CSC1=NC=C(C#N)C2=NC(c3c(Cl)cccc3Cl)NN12 (stereo not drawn) | inconclusive: 29.1 µM [inhibitor, single point] |  |
| CN(C)c1cccc2c(S(=O)(=O)N3CCOCC3)cccc12 | inconclusive: 18.4 µM [inhibitor, partial curve] |  |
| O=C(NC1CCN(C(=O)c2cccc([N+](=O)[O-])c2)CC1)c1ccccc1 | inactive |  |
| Cc1ccc(S(=O)(=O)c2cn(CC(=O)Nc3cccc(C)c3)c3cc4c(cc3c2=O)OCO4)cc1 | inactive |  |
| NS(=O)(=O)c1ccc(NC(=O)CSc2ccc3ccccc3n2)cc1 | inconclusive: 16.4 µM [inhibitor, partial curve, poor fit] and inconclusive: 18.4 µM [inhibitor, partial curve] |  |
